From the supplement of paper PMC12632987
Whole data set: some 2,300 sequences, median “median log2 fold change of GCK-ALFA target abundance (FLAG IP / Myc IP barcode read proportion)” near 0.095, cut for the lowest 2% near -0.47. This is one part of the list.

B1: LC3A_28_872 (protein)
chain: SHIDEQVEAVRKELEEQAKLGEDAVVTVKITSSMSLEEALELMKRVLALAKEYVKETGLKVSIVVDYDGDQETLDAVADLAEEAEKENPKITVIIALPEE
B2: LC3A_61_2037 (protein)
chain: MEIDVSKVPDKELAEEIKKAAAKVLKAAAALDPELAEEIAALIQEIVATGLAAEELLKLLKEANKKLEAAKTDEEKLAILEELLEDLKDLANLIPLDEEE
B3: LC3A_3_1596 (protein)
chain: AAALVEAALARLRAAGLSPAVLAAARRLLEALAARGYERAIERLTEALLELRDAPEELLVAMLEELLAIVETEDLSEEEVIEEIERLARLARLEAEIEEL
B4: LC3A_132_311 (protein)
chain: SEEKYKEIKEELEKKLKEAEKNIKDKEKVEKLLEEIRKLLEEAEEELSPEQVAELYDEVADRLWKLSQKALEAGQEDVALELDAAAIEAASRSLEAEKLI
B5: LC3A_28_999 (protein)
chain: MEIEKELEEALKKAKEAAAKGEPVVITIKVPGNANEEDIEKVIEAMYEIAEILKDVKGSAIIIDVDGNLKQEHLDKLMDAAEEIEKKYPNVTVIIALDED
B6: LC3A_28_1203 (protein)
chain: SKTKENAEAALKKAKELLAAGEEGVIELKIEGEITEEETEYAIEALEEIAKLAAESGKISIIIDIDGKVPEEHANKIIDKADELEKKYPNVNIIIALEER
B7: LC3A_28_1003 (protein)
chain: NPIEKQLEAALKEAKKAAAEGKPVVLTIKVSGTATEEDIEKIIEKLEEIAEILKDIKGAAIIIDIDGKVPQEFIDKLLDKGEEIEEKYPNITVIFALDED
B8: LC3A_147_502 (protein)
chain: YLLTVTIDIIVKNATEEVKEHVKKIEEELKKKGFKVNVKIEVEKLDEDTDYINITIEVEAETEEEAQEAADYIIDSWDEFEEKNKDKILGSLISVEIEKI
B9: LC3A_3_1549 (protein)
chain: MEELLEETLKRLKEAGASEEVIEAVRKALQALIDRGYEEALKEFAREVEELIGLPDEILLDFAEEVLRAIEEEDLNEEELIERIKEIATIAKNEGEIIEL
B10: LC3A_28_647 (protein)
chain: SALEEQLAAALAEARAAAAAGEPVVVTLTVPGDADEEDVEKVLEAMEEIAEILKDVKGSAIVVDIERGVKEEYKDKIIDKAEELEKKYPNVTVIIALEEE
B11: LC3A_28_1244 (protein)
chain: SAVDEQIAAAKAAAKEAVAAGEEALITLTVTGDTTEADVDKIIAAMEEIAELAKDLPALDIIIDVSAGVPQEHIDKLADAAEEIEEKYPNVTVIIALEER
B12: LC3A_17_596 (protein)
chain: MEELKEELKRLLKEAEELIKKLKELRPEAYPELAAQLEKAKKLIEEGKLYEAAKQLAELARQIADIFDELEEEGVEEAAPLEMEAGGIEVEAERLLLKLE
B13: LC3A_3_1913 (protein)
chain: MEEKLKKLEEQAKKLGHSEEVIKLALEAAKLFLEAGDEEGFELLFEMLKALKGLDEGTQKAFLEDLLAELKKLGNDKEARLKAAKEFLKLAKNANEIIEI
B14: LC3A_28_877 (protein)
chain: MSVEEALERARAEVEAAVARGEEALVEVDITEPISEEEARELVRGLEEIVRLGASLPRLDIVISLSRAVSEEAQNIIADGAERIEERYPHVTVIIALEEE
B15: LC3A_free_46_2365 (protein)
chain: MEIDIDILAEGKSEEEVEAIAKELKERIKKAAEEEGAEVEIEVEISKDEDGNWFIRVRIKVKAKTKEQKQAVVQKIVEIVDEISEEEGVAAIINIEDIEE
B16: LC3A_free_26_2130 (protein)
chain: SDFIDIYALDEALDYIEEAIKLLEEKGGKYKELLKLLKEAKKLLEEETLESLKKALELLKKAKKLIKEKKPEDPEFAKKLLELLERAIKLLEEVIEIMES
B17: LC3A_free_8_2488 (protein)
chain: SSKELATLASNLLSEFEEELVKKAKELGADRLDILELELEIGEIIAEVISLSDESPEKILEAVKEGLERVIEIAKEISEELAELAKKLSEKVIKEIEKAI
B18: LC3A_147_489 (protein)
chain: MEVDIDILVKDEETAKELVEKIKEIVEELKKEGIEVELKIEISKIEEGEYYVEVTITIKAETKEKEEEAANKVVKKVDEIIEENKDRVLAALISISEIEE
B19: LC3A_28_1212 (protein)
chain: SPTEEAIKKIKEQFEKAIKSGEPTAIVVEITKEITLEGAKEIMDAIEEEVEKAKDLKGLSIVIDVEEGVSQEVIDLIAERADEIEKKYPNVTVIIALEEE
B20: LC3A_28_708 (protein)
chain: NPLEESIKKALEEAKAAAKAGESTVITIKVPGSATEEDIEKLIKALEEIAEITKDLPSTSIIIDVDGGVKQEHIDKIADAAEEIEKKYPNVTVIIALDET
B21: LC3A_free_8_2553 (protein)
chain: DSQEFANKVSDIIDKAEEEISKVLEEAGVDPIKRLELELGLGEIKAEVVSLSDKSKEEILKATLEGLKEVKKLAEELDEETRKKVLEILDKAEKEIKSLL
B22: LC3A_free_39_2270 (protein)
chain: SPEEKEKALKRLEELKKKLSPEAQKALDEAVELAKDNVELLKVIAEKVEEALEEGADVLRLLKKAVEVLKQGQAAGLSPEELTKAVEEAMREEILLEPID
B23: LC3A_147_437 (protein)
chain: YKAVVDVDILTKNAEEEVLAHFEKIAEELKKQGYKVTLEIDVEKLENGETYIDATITVEAPTEEEAQKAADYIVDSIDELEEKLKDKVLGSIISVEISKL
B24: LC3A_132_263 (protein)
chain: SEELLEEALEELKEIADKIVDALAAGKDPWPYIVELDKKFEEYAEKLSLEETEELADEVLAHFRELAAKRLDPNDPEARRVLDIVEMLFEGVLIEKELKE
B25: LC3A_147_455 (protein)
chain: MLYEIDVDILFRNDPELVEEVEEKLKEIAEKYGGEVEVKREVIQETPTTTEYFLHVKITFEDEEKAKAALDEVDKLIEETAKKHPEKFLGSMISFDKIEK
B26: LC3A_28_1242 (protein)
chain: MEIEEQIERAKREVEEARARGEEALVTLKVGGDAEPEDVDKVIEAMEEIAELGKDLPRLDIIVDVSRGVPQEHIDKLADAGEEIEERYPNVTVIIALEER
B27: LC3A_28_1070 (protein)
chain: SAIDEQLAAALAEAREAAARGEELLVTLTIPADATEEDVEKVLATMEEIAEIAKDLPSVSIIVDVDTPNQEEVTKKVSEKGDELEKKYPHVNVIIALDEE
B28: LC3A_28_1002 (protein)
chain: NEIKKNLEEALKEAKKAKEENKPVVLTIKVSGKATEEDIELIIEKLEEIAEILKDIKGAAIIIDIDGKVKQEFIDKLLEKGEEIEKKYPNVTVIFALDED
B29: LC3A_28_1118 (protein)
chain: SLAEKVIKAFEKQVEAAIASGEETLIEVEVSPELSQEEVEKLAKKMAEYAKKAAEKLKVSVLVSVEKGVSQEKIDIIADEAEKVEEEYPNVNVIIALEEE

Molecular target: MAP1LC3A, Q9H492
Assay: median log2 fold change of GCK-ALFA target abundance (FLAG IP / Myc IP barcode read proportion) (log2 ratio); each designed protein is fused to an ALFA-tag nanobody in HEK293 cells to bring the named protein to FLAG-tagged glucokinase (GCK); Myc marks an untargeted standard; higher = target protein stabilised (more abundant)
Conditions: target protein: 3xFLAG-MCP-GCK-ALFA reporter; HEK293 landing pad (RPLP)
How it was run: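 Binders fused to an ALFA nanobody were recombined as a library into HEK293 landing-pad cells, which were induced with 2 μg mL^−1 doxycycline and then transfected to express a FLAG-tagged target and a Myc-tagged standard. After 48 h, circular RNA barcodes recovered by anti-FLAG and anti-Myc immunoprecipitation of lysates were reverse transcribed, amplified and sequenced. Each binder's target abundance is the median log2 ratio of FLAG to Myc barcode read proportions, from barcodes present at ≥10^−7 in both replicates, binders carrying ≥3 barcodes per replicate, a 10^−6 pseudocount and pooled replicates.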

Question: B1 was tested. Which “median log2 fold change” value did it give?
Answer: The value was -0.335.

Question: With B2 as the binder, how does the “median log2 fold change” value read?
Answer: The value was -0.037.

Question: How did the “median log2 fold change” value turn out when B3 was run?
Answer: Its value is 0.0711.

Question: For B4, which “median log2 fold change” value is on record?
Answer: Its value is 0.256.

Question: With B5 as the binder, how does the “median log2 fold change” value read?
Answer: The value was 0.146.

Question: How did the “median log2 fold change” value turn out when B6 was run?
Answer: Its value is -0.0441.

Question: With B7 as the binder, how does the “median log2 fold change” value read?
Answer: Its value is -0.112.

Question: With B8 as the binder, how does the “median log2 fold change” value read?
Answer: The value was -0.329.

Question: Which “median log2 fold change” value does the source give for B9 here?
Answer: The value was 0.258.

Question: B10 was tested. Which “median log2 fold change” value did it give?
Answer: Its value is -0.381.

Question: How did the “median log2 fold change” value turn out when B11 was run?
Answer: Its value is -0.00509.

Question: For B12, which “median log2 fold change” value is on record?
Answer: Its value is 0.00398.

Question: How did the “median log2 fold change” value turn out when B13 was run?
Answer: Its value is 0.282.

Question: Which “median log2 fold change” value does the source give for B14 here?
Answer: Its value is 0.233.

Question: How did the “median log2 fold change” value turn out when B15 was run?
Answer: The value was -0.0713.

Question: Which “median log2 fold change” value does the source give for B16 here?
Answer: Its value is -0.271.

Question: Which “median log2 fold change” value does the source give for B17 here?
Answer: The value was -0.0232.

Question: For B18, which “median log2 fold change” value is on record?
Answer: Its value is -0.0172.

Question: B19 was tested. Which “median log2 fold change” value did it give?
Answer: Its value is 0.0938.

Question: B20 was tested. Which “median log2 fold change” value did it give?
Answer: Its value is 0.0817.

Question: With B21 as the binder, how does the “median log2 fold change” value read?
Answer: Its value is 0.194.

Question: How did the “median log2 fold change” value turn out when B22 was run?
Answer: The value was 0.216.

Question: For B23, which “median log2 fold change” value is on record?
Answer: The value was -0.222.

Question: For B24, which “median log2 fold change” value is on record?
Answer: The value was -0.319.

Question: For B25, which “median log2 fold change” value is on record?
Answer: Its value is 0.263.

Question: B26 was tested. Which “median log2 fold change” value did it give?
Answer: The value was 0.298.

Question: With B27 as the binder, how does the “median log2 fold change” value read?
Answer: The value was -0.237.

Question: For B28, which “median log2 fold change” value is on record?
Answer: The value was -0.295.

Question: How did the “median log2 fold change” value turn out when B29 was run?
Answer: The value was -0.00261.
